The subject of data set [1] is rat collagen-induced arthritis model. Description: rat collagen-induced arthritis model. As to conditions: in vivo.
The nature of data set [2]: preclinical reproductive toxicity studies. To be noted: in vivo.
For data set [3] the following is noted: humans, oral administration; cited from earlier work.

The structures appear in SMILES notation.

Regarding `CC(C)(C=C(C#N)C(=O)N1CCC[C@@H](n2nc(-c3ccc(Oc4ccccc4)cc3F)c3c(N)ncnc32)C1)N1CCN(C2COC2)CC1` [rilzabrutinib, (R)-2-[3-[4-amino-3-(2-fluoro-4-phenoxy-phenyl)pyrazolo[3,4-d]pyrimidin-1-yl]piperidine-1-carbonyl]-4-methyl-4-[4-(oxetan-3-yl)piperazin-1-yl]pent-2-enenitrile], the anti-inflammatory effects result in data set [1] was “rapid and significant anti-inflammatory effects”. Also, the “harm to fetal development or male fertility” value in data set [2] was “not expected to harm fetal development or male fertility”. Besides, the half-life in data set [3] is 3 to 4 h.
